Source: the supplement of paper PMC12067093, “Discovery and optimisation of a covalent ligand for TRIM25 and its application to targeted protein ubiquitination” (Chemical Science, 2025)
Targets with the largest changes are over-represented here; the source holds about 21,000 in all.

Compound: CC1Cc2ccccc2N1C(=O)C1CCCN(C1)C(=O)CCl (mixture of isomers) [TRIM25 ligand 11 (diastereomer mixture)]
Test: probe-labelled cysteine peptide fold change vs DMSO (competition) (log2 fold change); higher = less target engagement (more negative = stronger competition)
Details: THP-1, incubation time: 4 h
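Also: competitive chemoproteomic profiling in live THP-1 cells with an iodoacetamide desthiobiotin (IA-DTB) probe, comparing probe-labelled peptide intensities in compound-treated cells against DMSO-treated controls.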

PPP2R5C_Q13362_49_QCCVLFDFVSDPLSDLK (UniProt Q13362)
Sequence of UniProt Q13362 (Q13362 whole entry, looked up): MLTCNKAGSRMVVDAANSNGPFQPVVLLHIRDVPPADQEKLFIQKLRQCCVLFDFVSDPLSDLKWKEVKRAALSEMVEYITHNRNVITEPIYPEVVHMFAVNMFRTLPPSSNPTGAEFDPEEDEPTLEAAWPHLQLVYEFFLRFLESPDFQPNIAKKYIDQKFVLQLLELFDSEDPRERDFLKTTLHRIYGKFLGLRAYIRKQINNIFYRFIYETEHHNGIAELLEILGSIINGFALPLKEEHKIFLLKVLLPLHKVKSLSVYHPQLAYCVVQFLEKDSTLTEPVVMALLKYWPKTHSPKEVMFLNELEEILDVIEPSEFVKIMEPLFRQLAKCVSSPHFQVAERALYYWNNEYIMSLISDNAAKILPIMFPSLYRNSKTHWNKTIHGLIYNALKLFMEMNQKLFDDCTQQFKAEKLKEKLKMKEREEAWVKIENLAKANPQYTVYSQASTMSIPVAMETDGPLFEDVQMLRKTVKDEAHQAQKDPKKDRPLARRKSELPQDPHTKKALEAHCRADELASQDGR
probe-labelled cysteine peptide fold change (10 µM): -0.119 | probe-labelled cysteine peptide fold change (50 µM): 0.0246

PFKL_P17858_708_VFANAPDSACVIGLK (UniProt P17858)
Sequence of UniProt P17858 (P17858 whole entry, looked up): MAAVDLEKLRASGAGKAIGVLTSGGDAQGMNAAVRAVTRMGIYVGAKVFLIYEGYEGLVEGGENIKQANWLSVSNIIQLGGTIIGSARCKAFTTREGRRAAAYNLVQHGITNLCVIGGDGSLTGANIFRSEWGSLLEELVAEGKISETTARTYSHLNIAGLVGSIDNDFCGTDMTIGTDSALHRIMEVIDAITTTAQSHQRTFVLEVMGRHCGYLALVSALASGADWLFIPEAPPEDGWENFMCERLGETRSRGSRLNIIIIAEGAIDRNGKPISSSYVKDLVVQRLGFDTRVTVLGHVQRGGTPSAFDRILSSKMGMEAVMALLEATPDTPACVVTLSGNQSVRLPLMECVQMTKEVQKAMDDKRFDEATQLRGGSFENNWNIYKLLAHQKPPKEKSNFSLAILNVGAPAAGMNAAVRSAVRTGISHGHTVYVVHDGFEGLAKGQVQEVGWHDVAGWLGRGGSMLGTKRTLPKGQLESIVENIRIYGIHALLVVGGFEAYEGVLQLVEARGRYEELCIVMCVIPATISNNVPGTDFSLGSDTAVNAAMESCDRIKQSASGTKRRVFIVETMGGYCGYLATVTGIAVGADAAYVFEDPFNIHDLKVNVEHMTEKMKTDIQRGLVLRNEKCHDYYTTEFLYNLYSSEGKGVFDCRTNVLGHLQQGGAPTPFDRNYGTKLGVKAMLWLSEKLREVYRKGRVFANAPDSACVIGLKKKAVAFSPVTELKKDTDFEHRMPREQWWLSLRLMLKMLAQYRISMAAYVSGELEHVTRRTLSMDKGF
probe-labelled cysteine peptide fold change (10 µM): 0.138 | probe-labelled cysteine peptide fold change (50 µM): -0.0211

POP1_Q99575_845_EACLSILGHFPR (UniProt Q99575)
Sequence of UniProt Q99575 (Q99575 whole entry, looked up): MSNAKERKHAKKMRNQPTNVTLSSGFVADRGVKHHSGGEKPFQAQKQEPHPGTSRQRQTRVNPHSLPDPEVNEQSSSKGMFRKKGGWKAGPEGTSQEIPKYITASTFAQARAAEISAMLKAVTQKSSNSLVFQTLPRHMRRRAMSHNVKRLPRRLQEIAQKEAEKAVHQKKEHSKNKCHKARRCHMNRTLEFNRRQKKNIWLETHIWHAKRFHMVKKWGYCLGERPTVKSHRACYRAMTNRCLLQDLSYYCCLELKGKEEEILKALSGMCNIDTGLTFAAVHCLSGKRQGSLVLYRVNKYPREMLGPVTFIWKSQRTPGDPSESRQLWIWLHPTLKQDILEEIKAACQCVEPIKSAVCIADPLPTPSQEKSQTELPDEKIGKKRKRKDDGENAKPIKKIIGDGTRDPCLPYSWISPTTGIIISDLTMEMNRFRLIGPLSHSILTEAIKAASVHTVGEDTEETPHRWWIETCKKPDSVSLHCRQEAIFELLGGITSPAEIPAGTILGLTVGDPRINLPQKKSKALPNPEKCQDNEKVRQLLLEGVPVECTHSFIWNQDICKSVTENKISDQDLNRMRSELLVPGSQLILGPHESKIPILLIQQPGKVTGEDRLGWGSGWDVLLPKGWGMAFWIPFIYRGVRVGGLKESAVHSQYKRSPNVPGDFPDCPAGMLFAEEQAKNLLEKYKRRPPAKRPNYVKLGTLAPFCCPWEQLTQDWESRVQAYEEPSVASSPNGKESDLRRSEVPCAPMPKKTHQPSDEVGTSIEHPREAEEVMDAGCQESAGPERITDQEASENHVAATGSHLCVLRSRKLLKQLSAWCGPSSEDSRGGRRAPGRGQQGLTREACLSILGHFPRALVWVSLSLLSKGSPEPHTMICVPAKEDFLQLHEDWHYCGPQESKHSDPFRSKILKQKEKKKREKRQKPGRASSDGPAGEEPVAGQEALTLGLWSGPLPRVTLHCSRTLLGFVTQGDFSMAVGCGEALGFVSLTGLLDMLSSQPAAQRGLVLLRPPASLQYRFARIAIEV
probe-labelled cysteine peptide fold change (10 µM): 0.137 | probe-labelled cysteine peptide fold change (50 µM): 0.144

PLAUR_Q03405_39_VEECALGQDLCR (UniProt Q03405)
probe-labelled cysteine peptide fold change (10 µM): 0.0182 | probe-labelled cysteine peptide fold change (50 µM): -0.119

PGRMC1_O00264_129_GLATFCLDK<|>PGRMC2_O15173_159_GLATFCLDK (UniProt O15173+O00264)
probe-labelled cysteine peptide fold change (10 µM): -0.0817 | probe-labelled cysteine peptide fold change (50 µM): -0.134

PPM1G_O15355_241_GTEAGQVGEPGIPTGEAGPSCSSASDK (UniProt O15355)
Sequence of UniProt O15355 (O15355 whole entry, looked up): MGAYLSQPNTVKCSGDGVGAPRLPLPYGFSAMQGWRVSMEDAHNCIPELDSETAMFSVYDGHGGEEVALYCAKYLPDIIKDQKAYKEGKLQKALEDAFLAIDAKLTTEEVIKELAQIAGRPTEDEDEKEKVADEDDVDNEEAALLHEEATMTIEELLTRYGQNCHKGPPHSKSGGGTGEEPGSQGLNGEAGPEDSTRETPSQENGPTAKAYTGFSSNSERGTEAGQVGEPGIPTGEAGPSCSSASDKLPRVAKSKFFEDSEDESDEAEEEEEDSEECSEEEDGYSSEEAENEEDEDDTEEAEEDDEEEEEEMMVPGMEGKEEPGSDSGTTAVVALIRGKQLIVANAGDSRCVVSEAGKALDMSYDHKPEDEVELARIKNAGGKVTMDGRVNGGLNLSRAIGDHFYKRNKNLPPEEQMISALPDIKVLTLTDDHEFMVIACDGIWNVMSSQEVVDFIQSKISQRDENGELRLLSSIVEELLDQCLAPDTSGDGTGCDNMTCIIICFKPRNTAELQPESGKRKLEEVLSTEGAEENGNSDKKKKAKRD
probe-labelled cysteine peptide fold change (10 µM): 0.0659 | probe-labelled cysteine peptide fold change (50 µM): -0.175

PRKDC_P78527_223_LPVLAGCLK (UniProt P78527)
probe-labelled cysteine peptide fold change (10 µM): -0.12 | probe-labelled cysteine peptide fold change (50 µM): 0.0647

PPIL3_Q9H2H8_25_TCENFLALCASNYYNGCIFHR (UniProt Q9H2H8)
Sequence of UniProt Q9H2H8 (Q9H2H8 whole entry, looked up): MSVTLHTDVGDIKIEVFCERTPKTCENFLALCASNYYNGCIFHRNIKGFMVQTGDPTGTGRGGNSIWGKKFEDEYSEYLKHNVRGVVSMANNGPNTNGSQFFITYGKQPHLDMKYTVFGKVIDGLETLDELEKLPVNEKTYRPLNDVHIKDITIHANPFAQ
probe-labelled cysteine peptide fold change (10 µM): -0.31 | probe-labelled cysteine peptide fold change (50 µM): -0.139

POLK_Q9UBT6_545_SIIGFLQAGNQALSATECTLEK (UniProt Q9UBT6)
probe-labelled cysteine peptide fold change (10 µM): -0.109 | probe-labelled cysteine peptide fold change (50 µM): -0.758

PLAUR_Q03405_98_ITSLTEVVCGLDLCNQGNSGR (UniProt Q03405)
probe-labelled cysteine peptide fold change (10 µM): -0.38 | probe-labelled cysteine peptide fold change (50 µM): -0.0409

PFKFB3_Q16875_387_LEPVIMELERQENVLVICHQAVLR (UniProt Q16875)
Sequence of UniProt Q16875 (Q16875 whole entry, looked up): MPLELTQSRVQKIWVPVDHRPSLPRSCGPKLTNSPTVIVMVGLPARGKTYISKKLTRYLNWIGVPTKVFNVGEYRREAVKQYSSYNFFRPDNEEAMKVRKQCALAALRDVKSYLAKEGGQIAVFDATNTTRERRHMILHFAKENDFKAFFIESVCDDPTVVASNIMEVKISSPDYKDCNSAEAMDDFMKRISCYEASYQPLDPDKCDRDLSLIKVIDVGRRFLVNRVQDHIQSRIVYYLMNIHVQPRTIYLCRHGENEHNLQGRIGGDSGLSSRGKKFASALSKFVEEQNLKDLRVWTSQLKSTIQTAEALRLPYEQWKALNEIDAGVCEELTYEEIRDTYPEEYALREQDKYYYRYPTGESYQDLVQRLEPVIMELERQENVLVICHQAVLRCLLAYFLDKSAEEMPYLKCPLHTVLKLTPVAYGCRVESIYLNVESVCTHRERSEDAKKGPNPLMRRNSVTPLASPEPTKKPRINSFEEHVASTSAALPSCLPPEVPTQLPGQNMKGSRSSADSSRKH
probe-labelled cysteine peptide fold change (10 µM): 0.0402 | probe-labelled cysteine peptide fold change (50 µM): 0.0398

PPFIBP2_Q8ND30_685_CAIHVLHVNK (UniProt Q8ND30)
probe-labelled cysteine peptide fold change (10 µM): 0.226 | probe-labelled cysteine peptide fold change (50 µM): 0.421

PIBF1_Q8WXW3_334_CAHEEDRLER (UniProt Q8WXW3)
Sequence of UniProt Q8WXW3 (Q8WXW3 whole entry, looked up): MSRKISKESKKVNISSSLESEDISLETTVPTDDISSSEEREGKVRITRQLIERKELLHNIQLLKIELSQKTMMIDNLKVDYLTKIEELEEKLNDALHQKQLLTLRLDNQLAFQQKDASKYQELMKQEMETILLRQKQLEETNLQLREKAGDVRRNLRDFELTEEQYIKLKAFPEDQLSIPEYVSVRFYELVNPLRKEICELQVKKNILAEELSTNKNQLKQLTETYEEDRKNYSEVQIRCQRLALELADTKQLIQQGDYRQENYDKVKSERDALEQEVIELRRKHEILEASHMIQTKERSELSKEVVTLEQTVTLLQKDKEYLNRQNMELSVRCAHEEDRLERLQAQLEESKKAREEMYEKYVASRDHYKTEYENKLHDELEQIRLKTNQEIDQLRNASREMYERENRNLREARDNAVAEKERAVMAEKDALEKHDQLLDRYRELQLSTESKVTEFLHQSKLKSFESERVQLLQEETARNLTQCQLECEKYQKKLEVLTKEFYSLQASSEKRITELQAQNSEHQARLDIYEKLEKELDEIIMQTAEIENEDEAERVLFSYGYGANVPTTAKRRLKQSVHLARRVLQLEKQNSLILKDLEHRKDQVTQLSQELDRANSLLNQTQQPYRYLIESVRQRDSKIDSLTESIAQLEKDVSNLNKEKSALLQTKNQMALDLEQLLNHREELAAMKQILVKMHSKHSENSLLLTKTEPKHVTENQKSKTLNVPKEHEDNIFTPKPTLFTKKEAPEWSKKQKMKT
probe-labelled cysteine peptide fold change (10 µM): 1.04 | probe-labelled cysteine peptide fold change (50 µM): 0.237

PPP2R5D_Q14738_17_CTAKPSSSGK (UniProt Q14738)
Sequence of UniProt Q14738 (Q14738 whole entry): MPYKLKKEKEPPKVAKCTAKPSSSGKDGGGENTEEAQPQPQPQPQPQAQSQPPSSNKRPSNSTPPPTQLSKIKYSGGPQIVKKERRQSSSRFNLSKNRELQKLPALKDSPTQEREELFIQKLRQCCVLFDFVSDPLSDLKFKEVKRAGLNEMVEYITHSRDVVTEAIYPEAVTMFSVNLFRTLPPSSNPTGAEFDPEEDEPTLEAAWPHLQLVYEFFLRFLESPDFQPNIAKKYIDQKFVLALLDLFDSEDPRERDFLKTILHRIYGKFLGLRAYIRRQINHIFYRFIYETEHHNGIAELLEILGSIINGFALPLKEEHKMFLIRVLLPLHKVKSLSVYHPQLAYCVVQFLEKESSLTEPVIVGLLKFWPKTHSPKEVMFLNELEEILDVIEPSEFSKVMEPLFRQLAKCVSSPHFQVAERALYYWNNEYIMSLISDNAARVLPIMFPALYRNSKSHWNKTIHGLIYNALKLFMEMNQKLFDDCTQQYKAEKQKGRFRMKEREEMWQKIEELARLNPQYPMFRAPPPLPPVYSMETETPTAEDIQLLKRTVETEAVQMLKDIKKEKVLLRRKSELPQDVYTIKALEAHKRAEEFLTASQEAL
probe-labelled cysteine peptide fold change (10 µM): -0.467 | probe-labelled cysteine peptide fold change (50 µM): -0.717
